# Data from the supplement of paper PMC8728848.
# Some of the results follow.
# B1: Epa1-NP-mutant-E227A (Candida glabrata), Q6VBJ0 (protein)
# chain: MILNPALFLNKCVCIYTTLILLLLTNGGYATSSNDISLASKDPTTFPLGCSPDITTPKKGLSMELYSYDFRKKGSYPCWDAAYLDPNYPRTGYKSHRLLAKVDGVTGNINFYYHATKGCTPQLGHLPASYNYPKPLTMTNFTMLLYGYFRPKVTGFHTFTISADDLLFVNFGAGNAFDCCRRDSSADHFGNYQAYAIWGSKTAKDELTVHLDAGVYYPIRLFYNNRAYDGALSFTFKTESNENTVSDFSEYFFSLDDTEEGCPGLISYDSSCASVKTSKIIGIDYHTETPNENLVPITKTIYHLGIPCTGTTTTPLCGSGFYDPLANKCVTINTSSTSSVTKTTSHTTSKEVSFHSSISSQKTLIPKSIPSPYGPIKSQSIPTEMETSSEISSSEYAFSDVISTPSHSPYTKKHSSLNSSSYTSTVIHSLTSYSISQGIFSTSLSEQNITSKSSTDKFSTATSMSNNITQSSIIISQFSTNNENYTTTSMHTSSDKISTETLNNSISTTTSILFSNSSTILKNNTTIISSDKDTHYHPVNPTIVCSTNKTEIICASITQPSISNSNNHWSSSVLKFNSTTVRSTLPSSAGSNETSINVPFSSSTESNTSTSSTSTSNSKMVRSTLPSSAGSNETSISVPFSSSTESNTSTSSTSTSNSKMVRSTLPSSAGSNETSINVPFSSSTESNTSTSSTSTSNSKTVRSTPFSSAGIIMTSLSQRNNKSASSYASSNSKCYNTADSCRKVHSTPSYLLTSSYTSEGVDYDCSLVSTKLKINDTNCVNNKHTTKSCLKTSVTTTIPTLEIKTARKSSSNTIGLHSYPTSSPNKSISSAPIIGYISSFKTIKTASPSYQTSDLTTITTITSLNNPGSTAVENTHESNDKSRKTSSNDISSKHSVIKETKDAVESSNKSHQTNTLKCSSIIIASSSHNSYESLGGTTLTLTLSKVYSPQNNDTLPFLEISEVNPSRTVLPESSKMMQYLTSTEERNKTARNTIATNIVSISTFHFEGEGNAIRMGYTQLLLMLIGIIVMNIGT
# How the values were obtained:
# Experiment in all cases: glycan array binding signal (z-score within array); higher = stronger binding
# Conditions in all cases: glycan notation: IUPAC condensed, linker removed; mutation: E227A
# [1] = target: Fuc(a1-2)Gal(b1-4)GlcNAc(b1-3)Gal(b1-4)GlcNAc(b1-2)Man(a1-3)[Fuc(a1-2)Gal(b1-4)GlcNAc(b1-3)Gal(b1-4)GlcNAc(b1-2)Man(a1-6)]Man(b1-4)GlcNAc(b1-4)GlcNAc
# How it was run: (§1)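 The binding signal is a Z-score computed within each array and averaged over linkers. Arrays of the same protein sequence at different concentrations or buffers were also averaged together. Data originate from 3228 arrays in the Consortium for Functional Glycomics database, kept only where the protein sequence was available.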
# [2] = target: Fuc(a1-2)Gal(b1-4)GlcNAc(b1-3)Gal(b1-4)GlcNAc(b1-3)Gal(b1-4)GlcNAc
# How it was run: as §1
# [3] = target: Fuc(a1-2)Gal(b1-4)GlcNAc(b1-3)GalNAc
# How it was run: as §1
# [4] = target: Fuc(a1-2)Gal(b1-4)GlcNAc(b1-3)[Fuc(a1-2)Gal(b1-4)GlcNAc(b1-6)]GalNAc
# How it was run: as §1
# [5] = target: Fuc(a1-2)Gal(b1-4)GlcNAc(b1-3)[Fuc(a1-3)[Gal(b1-4)]GlcNAc(b1-6)]Gal(b1-4)Glc
# How it was run: as §1
# [6] = target: Fuc(a1-2)Gal(b1-4)GlcNAc(b1-6)GalNAc
# How it was run: as §1
# [7] = target: Fuc(a1-2)Gal(b1-4)GlcNAc6S
# How it was run: as §1
# [8] = target: Fuc(a1-2)Gal(b1-4)[Fuc(a1-3)]GlcNAc
# How it was run: as §1
# [9] = target: Fuc(a1-2)Gal(b1-4)[Fuc(a1-3)]GlcNAc(b1-2)Man(a1-3)[Fuc(a1-2)Gal(b1-4)[Fuc(a1-3)]GlcNAc(b1-2)Man(a1-6)]Man(b1-4)GlcNAc(b1-4)[Fuc(a1-6)]GlcNAc
# How it was run: as §1
# [10] = target: Fuc(a1-2)Gal(b1-4)[Fuc(a1-3)]GlcNAc(b1-2)[Fuc(a1-2)Gal(b1-4)[Fuc(a1-3)]GlcNAc(b1-4)]Man(a1-3)[Fuc(a1-2)Gal(b1-4)[Fuc(a1-3)]GlcNAc(b1-2)Man(a1-6)]Man(b1-4)GlcNAc(b1-4)GlcNAc
# How it was run: as §1
# [11] = target: Fuc(a1-2)Gal(b1-4)[Fuc(a1-3)]GlcNAc(b1-3)Gal(b1-4)[Fuc(a1-3)]GlcNAc
# How it was run: as §1
# [12] = target: Fuc(a1-2)Gal(b1-4)[Fuc(a1-3)]GlcNAc(b1-3)Gal(b1-4)[Fuc(a1-3)]GlcNAc(b1-3)Gal(b1-4)[Fuc(a1-3)]GlcNAc
# How it was run: as §1
# [13] = target: Fuc(a1-2)Gal(b1-4)[Fuc(a1-3)]GlcNAc(b1-3)GalNAc
# How it was run: as §1
# [14] = target: Fuc(a1-2)Gal(b1-4)[Fuc(a1-3)]GlcNAc(b1-3)[Neu5Ac(a2-6)Gal(b1-4)GlcNAc(b1-6)]Gal(b1-4)Glc
# How it was run: as §1
# [15] = target: Fuc(a1-2)Gal3S(b1-4)GlcNAc
# How it was run: as §1
# [16] = target: Fuc(a1-2)Gal6S(b1-3)GlcNAc
# How it was run: as §1
# [17] = target: Fuc(a1-2)Gal6S(b1-3)GlcNAc6S
# How it was run: as §1
# Fuc(a1-2)Gal6S(b1-4)Glc = target: Fuc(a1-2)Gal6S(b1-4)Glc
# How it was run: as §1
# [18] = target: Fuc(a1-2)Gal6S(b1-4)Glc6S
# How it was run: as §1
# Fuc(a1-2)[Gal(a1-3)]Gal = target: Fuc(a1-2)[Gal(a1-3)]Gal
# How it was run: as §1
# [19] = target: Fuc(a1-2)[Gal(a1-3)]Gal(b1-3)GalNAc
# How it was run: as §1
# [20] = target: Fuc(a1-2)[Gal(a1-3)]Gal(b1-3)GalNAc(b1-3)Gal(a1-4)Gal(b1-4)Glc
# How it was run: as §1
# [21] = target: Fuc(a1-2)[Gal(a1-3)]Gal(b1-3)GlcNAc
# How it was run: as §1
# [22] = target: Fuc(a1-2)[Gal(a1-3)]Gal(b1-3)GlcNAc(b1-2)Man(a1-3)[Fuc(a1-2)[Gal(a1-3)]Gal(b1-3)GlcNAc(b1-2)Man(a1-6)]Man(b1-4)GlcNAc(b1-4)GlcNAc
# How it was run: as §1
# [23] = target: Fuc(a1-2)[Gal(a1-3)]Gal(b1-3)GlcNAc(b1-2)Man(a1-3)[Fuc(a1-2)[Gal(a1-3)]Gal(b1-3)GlcNAc(b1-2)Man(a1-6)]Man(b1-4)GlcNAc(b1-4)[Fuc(a1-6)]GlcNAc
# How it was run: as §1
# [24] = target: Fuc(a1-2)[Gal(a1-3)]Gal(b1-3)GlcNAc(b1-3)GalNAc
# How it was run: as §1
# [25] = target: Fuc(a1-2)[Gal(a1-3)]Gal(b1-3)GlcNAc(b1-6)GalNAc
# How it was run: as §1
# [26] = target: Fuc(a1-2)[Gal(a1-3)]Gal(b1-4)Glc
# How it was run: as §1
# [27] = target: Fuc(a1-2)[Gal(a1-3)]Gal(b1-4)GlcNAc
# How it was run: as §1
# [28] = target: Fuc(a1-2)[Gal(a1-3)]Gal(b1-4)GlcNAc(b1-2)Man
# How it was run: as §1
binder,measurement,setting,value
B1,glycan array binding signal (z-score),[1],-0.185
same,glycan array binding signal (z-score),[2],-0.186
same,glycan array binding signal (z-score),[3],-0.159
same,glycan array binding signal (z-score),[4],-0.193
same,glycan array binding signal (z-score),[5],-0.219
same,glycan array binding signal (z-score),[6],-0.184
same,glycan array binding signal (z-score),[7],-0.104
same,glycan array binding signal (z-score),[8],-0.209
same,glycan array binding signal (z-score),[9],-0.178
same,glycan array binding signal (z-score),[10],-0.179
same,glycan array binding signal (z-score),[11],-0.141
same,glycan array binding signal (z-score),[12],-0.216
same,glycan array binding signal (z-score),[13],-0.16
same,glycan array binding signal (z-score),[14],-0.217
same,glycan array binding signal (z-score),[15],0.669
same,glycan array binding signal (z-score),[16],-0.197
same,glycan array binding signal (z-score),[17],-0.202
same,glycan array binding signal (z-score),Fuc(a1-2)Gal6S(b1-4)Glc,-0.194
same,glycan array binding signal (z-score),[18],-0.214
same,glycan array binding signal (z-score),Fuc(a1-2)[Gal(a1-3)]Gal,-0.19
same,glycan array binding signal (z-score),[19],-0.205
same,glycan array binding signal (z-score),[20],-0.185
same,glycan array binding signal (z-score),[21],-0.201
same,glycan array binding signal (z-score),[22],-0.176
same,glycan array binding signal (z-score),[23],-0.212
same,glycan array binding signal (z-score),[24],-0.204
same,glycan array binding signal (z-score),[25],-0.177
same,glycan array binding signal (z-score),[26],-0.191
same,glycan array binding signal (z-score),[27],-0.206
same,glycan array binding signal (z-score),[28],-0.193
